The subject of this test is V-C8 (BRCA2-deficient hamster cells). Briefly: normalised cell viability (fraction of plate median); higher = more viable cells (less toxic). The note with it: 5 µM. The method, boiled down:
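Hamster V-C8 cells with and without restored BRCA2 were exposed in 96-well plates to library drugs at 5 μM for 3 days (screen 1) or 6 days (screen 2). Cell viability was scored by resazurin assay, then median-plate normalised, averaging triplicate wells.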

Structures can show the parent of a compound that is named as a salt. ± gives the standard deviation of the averaged measurements. The full ranking holds about 1,300 compounds; the median of “normalised cell viability” is about 1, and the lowest 2% start at about 0.14. Some of the results follow.

`O=c1[nH]c(=O)n([C@H]2C[C@H](O)[C@@H](CO)O2)cc1I` [Idoxuridine]: the normalised cell viability is, setting by setting: (treatment time: 3 days) 0.4 ± 0.041; (treatment time: 6 days) 0.363 ± 0.011.

`Cc1cccc(N(C)C(=S)Oc2ccc3ccccc3c2)c1` [Tolnaftate]: the normalised cell viability runs as follows: (treatment time: 3 days) 1 ± 0.041; (treatment time: 6 days) 0.983 ± 0.02.

For the molecule `O=C(O)c1cccnc1` [Niacin], the normalised cell viability is, setting by setting: (treatment time: 3 days) 0.94 ± 0.016; (treatment time: 6 days) 1.03 ± 0.02.

As for `CCCCc1oc2ccccc2c1C(=O)c1cc(I)c(OCCN(CC)CC)c(I)c1` [Amiodarone hydrochloride], the normalised cell viability came to 0.6801 ± 0.0018 (treatment time: 3 days) and 0.701 ± 0.038 (treatment time: 6 days).

Regarding `CCN1CCCC1CNC(=O)c1cc(S(N)(=O)=O)ccc1OC` (configuration not stated) [Sulpiride], the normalised cell viability (treatment time: 3 days) was 1.1 ± 0.062 and the normalised cell viability (treatment time: 6 days) was found to be 1.05 ± 0.032.

On to `COc1ccc(-c2ccc3cc(C(=O)O)ccc3c2)cc1C12CC3CC(CC(C3)C1)C2` [Adapalene], for which the normalised cell viability is, setting by setting: (treatment time: 3 days) 0.294 ± 0.022; (treatment time: 6 days) 0.397 ± 0.041.

In the case of `NCCc1ccc(O)c(O)c1` [Dopamine hydrochloride], the normalised cell viability by setting is: (treatment time: 3 days) 1.02 ± 0.047; (treatment time: 6 days) 0.928 ± 0.044.

Consider `C[C@H](CS)C(=O)N1CCC[C@H]1C(=O)O` [Captopril], for which the normalised cell viability is, setting by setting: (treatment time: 3 days) 0.99 ± 0.03; (treatment time: 6 days) 1.02 ± 0.031.

With `CN(Cc1cc(Br)cc(Br)c1N)C1CCCCC1` [Bromhexine hydrochloride], the normalised cell viability runs as follows: (treatment time: 3 days) 0.977 ± 0.078; (treatment time: 6 days) 1.04 ± 0.024.

On to `CC1(C)O[C@@H]2C[C@H]3[C@@H]4C[C@H](F)C5=CC(=O)C=C[C@]5(C)[C@H]4[C@@H](O)C[C@]3(C)[C@]2(C(=O)CO)O1` [Flunisolide], for which the normalised cell viability was determined as 0.984 ± 0.067 (treatment time: 3 days) and 1.07 ± 0.072 (treatment time: 6 days).

`Cc1c(Nc2ncccc2C(=O)O)cccc1C(F)(F)F` [Flunixin meglumine]: the normalised cell viability came to 1.1 ± 0.11 (treatment time: 3 days) and 1.03 ± 0.037 (treatment time: 6 days).

For the molecule `CC[C@H](c1ccc(O)cc1)[C@@H](CC)c1ccc(O)cc1` [Hexestrol], the normalised cell viability (treatment time: 3 days) turned out to be 1.01 ± 0.041 and the normalised cell viability (treatment time: 6 days) turned out to be 0.982 ± 0.11.

As to `Nc1nc(N)c2nc(-c3ccccc3)c(N)nc2n1` [Triamterene], the normalised cell viability is 0.9263 ± 0.0054 (treatment time: 3 days) and 0.892 ± 0.14 (treatment time: 6 days).

For the molecule `CC(C)(C)NC(=O)[C@H]1CC[C@H]2[C@@H]3CC[C@H]4NC(=O)C=C[C@]4(C)[C@H]3CC[C@]12C` [Finasteride], the normalised cell viability reads like this: (treatment time: 3 days) 0.899 ± 0.031; (treatment time: 6 days) 0.893 ± 0.026.

On to `Cn1nnc2c(C(N)=O)ncn2c1=O` [Temozolomide], for which the normalised cell viability by setting is: (treatment time: 3 days) 1.07 ± 0.062; (treatment time: 6 days) 0.85 ± 0.022.

Regarding `CCCCOc1ccc(C(=O)CCN2CCCCC2)cc1` [Dyclonine hydrochloride], the normalised cell viability (treatment time: 3 days) was determined as 1.07 ± 0.092 and the normalised cell viability (treatment time: 6 days) turned out to be 1.04 ± 0.039.

`C=C1C(=O)O[C@H]2[C@H]1CC/C(C)=C/CC[C@@]1(C)O[C@@H]21` [Parthenolide] returned a normalised cell viability (treatment time: 3 days) of 0.199 ± 0.017 and a normalised cell viability (treatment time: 6 days) of 0.416 ± 0.11.

For `CC(CN(C)C)CN1c2ccccc2CCc2ccccc21` (configuration not stated) [Trimipramine maleate salt], the normalised cell viability (treatment time: 3 days) came to 1.023 ± 0.01 and the normalised cell viability (treatment time: 6 days) is 1.21 ± 0.3.

Take `CC(C)NCC(O)COc1cccc2[nH]ccc12` (configuration not stated) [Pindolol]: the normalised cell viability by setting is: (treatment time: 3 days) 0.983 ± 0.067; (treatment time: 6 days) 1.02 ± 0.085.

Turning to `OC(CCN1CCCC1)(c1ccccc1)C1CCCCC1` (configuration not stated) [Procyclidine hydrochloride], the normalised cell viability worked out at 0.973 ± 0.037 (treatment time: 3 days) and 0.967 ± 0.089 (treatment time: 6 days).

For the molecule `CC(C)C(=O)c1c(C(C)C)nn2ccccc12` [Ibudilast], the normalised cell viability runs as follows: (treatment time: 3 days) 1.01 ± 0.046; (treatment time: 6 days) 1.04 ± 0.011.

`Nc1ccc(C(=O)O)c(O)c1` [4-aminosalicylic acid] came in with a normalised cell viability (treatment time: 3 days) of 1.17 ± 0.17 and a normalised cell viability (treatment time: 6 days) of 1.01 ± 0.013.

Regarding `O=C1Nc2ccc(Cl)cc2[C@@](C#CC2CC2)(C(F)(F)F)O1` [Efavirenz], the normalised cell viability (treatment time: 3 days) was 1 ± 0.071 and the normalised cell viability (treatment time: 6 days) came to 1.01 ± 0.032.

Regarding `Clc1ccc(C(c2ccccc2Cl)C(Cl)Cl)cc1` (configuration not stated) [Mitotane], the normalised cell viability reads like this: (treatment time: 3 days) 0.955 ± 0.031; (treatment time: 6 days) 0.997 ± 0.045.

Consider `O=C1O[C@H]([C@@H](O)CO)C(O)=C1O` [Ascorbic acid], for which the normalised cell viability stood at 1.1 ± 0.028 (treatment time: 3 days) and 1.04 ± 0.021 (treatment time: 6 days).

As for `CC[N+](C)(CC)CCC[n+]1c(-c2ccccc2)c2cc(N)ccc2c2ccc(N)cc21` [Propidium iodide], the normalised cell viability came to 0.892 ± 0.035 (treatment time: 3 days) and 0.944 ± 0.043 (treatment time: 6 days).

Consider `O=C(O)c1ccccc1Nc1cccc(C(F)(F)F)c1` [Flufenamic acid], for which the normalised cell viability came to 1.02 ± 0.029 (treatment time: 3 days) and 0.982 ± 0.015 (treatment time: 6 days).

On to `CCC(=O)O[C@]1(C(=O)SCF)[C@H](C)C[C@H]2[C@@H]3C[C@H](F)C4=CC(=O)C=C[C@]4(C)[C@@]3(F)[C@@H](O)C[C@@]21C` [Fluticasone propionate], for which the normalised cell viability (treatment time: 3 days) was determined as 0.876 ± 0.12 and the normalised cell viability (treatment time: 6 days) is 0.895 ± 0.034.

For `Nc1ccc(/N=N/c2ccccc2)c(N)n1` [Phenazopyridine hydrochloride], the normalised cell viability was found to be 0.978 ± 0.05 (treatment time: 3 days) and 0.984 ± 0.079 (treatment time: 6 days).

`CN(C)CCOC(=O)C(c1ccccc1)C1(O)CCCC1` (configuration not stated) [Cyclopentolate hydrochloride]: the normalised cell viability runs as follows: (treatment time: 3 days) 0.935 ± 0.12; (treatment time: 6 days) 1.04 ± 0.018.

As for `Nc1nc(/C(=C/CC(=O)O)C(=O)N[C@@H]2C(=O)N3C(C(=O)O)=CCS[C@H]23)cs1` [Ceftibuten], the normalised cell viability reads like this: (treatment time: 3 days) 0.923 ± 0.068; (treatment time: 6 days) 0.969 ± 0.074.

Take `OCCN1CCN(CC/C=C2/c3ccccc3Sc3ccc(Cl)cc32)CC1` [Zuclopenthixol hydrochloride]: the normalised cell viability by setting is: (treatment time: 3 days) 0.605 ± 0.014; (treatment time: 6 days) 0.61 ± 0.032.

Consider `CCc1nn(CCCN2CCN(c3cccc(Cl)c3)CC2)c(=O)n1CCOc1ccccc1` [Nefazodone HCl], for which the normalised cell viability was determined as 0.764 ± 0.036 (treatment time: 3 days) and 0.8488 ± 0.0051 (treatment time: 6 days).

With `C[N+](C)(CCOc1ccccc1)Cc1ccccc1.O=C([O-])c1cc2ccccc2cc1O` [Bephenium hydroxynaphthoate], the normalised cell viability runs as follows: (treatment time: 3 days) 1.01 ± 0.042; (treatment time: 6 days) 0.999 ± 0.033.

For the molecule `CC(NCCc1ccc(O)cc1)C(O)c1ccc(O)cc1` (configuration not stated) [Ritodrine hydrochloride], the normalised cell viability turned out to be 1.05 ± 0.048 (treatment time: 3 days) and 1.09 ± 0.088 (treatment time: 6 days).

For `CCC1(C)CC(=O)NC1=O` (configuration not stated) [Ethosuximide], the normalised cell viability is, setting by setting: (treatment time: 3 days) 0.918 ± 0.067; (treatment time: 6 days) 1.07 ± 0.058.

Values taken from the supplement of paper PMC6609913.
